Assay results taken from the supplement of paper PMC10338343.
± gives the standard deviation. Over roughly 3,700 sequences, “pre-steady-state target cleavage rate” has its median near 0.02; the highest 2% begin near 0.23. This is a selection; strong and weak results do not stand in their true shares.

system: MILI (PIWIL2) piRISC loaded with Kctd7 piRNA (26 nt); test: pre-steady-state target cleavage rate (min^-1); MIWI and MILI are mouse PIWI proteins and EfPiwi is from a freshwater sponge; tags in brackets are library labels; higher = faster piRNA-guided slicing of the target; settings: guide: Kctd7 piRNA 5'p-UGUUAAUCUCUCAGAGAAGGUGACAG; auxiliary factor: 500 nM mouse GTSF1
How it was run: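 In this Cleave-'n-Seq assay, uncleaved targets were sequenced and normalised to depth and to weakly complementary targets. They came from a transcribed, DNA-blocked target RNA library […] mixed with 1 nM active affinity-purified piRISC carrying one synthetic guide, with or without 500 nM GTSF1 partner protein, in HEPES–potassium acetate buffer at 33 °C for 0–8 or 0–960 min. After three trials were pooled and k3 was capped at 0.0001 min^-1, the pre-steady-state cleavage rate was obtained from a burst-and-steady-state fit.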
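Also: 1 nM active piRISC with 0.1 nM target library at 33 °C single turnover.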

Sequence | pre-steady-state target cleavage rate
UAGUCUGUCUGCUUCUCUGAGAGAUUAAGA | 0.0318 ± 0.0048
UAGUGUCUCACCUUCUCUGAGAGUUUAACA | 0.286 ± 0.038
UAGUGACAGUGGAUCUCUGAGAGAUUGAACA | < 0.0001
UAGUCUGUGACCUUGUCUGAGAGAUUAACA | 0.093 ± 0.011
UAGUGUGUCUCCUUCUCAGAGAGAUUAACA | 0.0522 ± 0.011
UAGUCUGUCACCUUCUGUGAGAGAUAAACA | 0.0199 ± 0.0068
UAGUGACAGACCGUUCUCUGAGAGAUUAACA | 0.0665 ± 0.0095
UAGUGACUCACCUUCUCUGAGAGAUAAACA | 0.141 ± 0.023
UAGUGACAGUGGUUUCUCUGAGAGAUUAACA | 0.0109 ± 0.0027
UAGUGACUCAGCUUCUCUGUGAGAUUAACA | 0.0297 ± 0.0038
UAGUCUGUCACCUUCUCUGAGAGUAUUAACA | 0.173 ± 0.013
UAGUGACAGUGGUUCUAUGAGAGAUUAACA | 0.00489 ± 0.0027
UAGUGACAGUGCUUUCUGAGAGAUUAACA | 0.00706 ± 0.0028
UAGUGACACACGUUCUCUGAGAGAUAAACA | 0.0273 ± 0.0051
UAGUGACACACCUCCUCUGAGAGAUUAACA | 0.145 ± 0.0088
UAGUGACAGUCGUUCUGUGAGAGAUUAACA | 0.00579 ± 0.0023
UAGUGACACAGCUUCUGUGAGAGAUUAACA | 0.05 ± 0.011
UAGUGCGUCACCUUCUCUGAGAGAUUAACA | 0.199 ± 0.013
UAGUGACAGACCUUCUGAGAGAGAUUAAGA | 0.00483 ± 0.0039
UAGUGAGUCACCUUGAGUGAGAGAUUAACA | 0.0638 ± 0.0084
UAGUGACUCACCUUCUCUGAGCGAUUAACA | 0.0117 ± 0.0056
UAGUGACUCACCUUCUCUGAGAGAUUUACA | 0.113 ± 0.017
UAGUCUGUCACGUUCUCUGAGAGUUUAACA | 0.0505 ± 0.0053
UAGUCUGUCUCCUUCUCUGAGAGAUUAUCA | 0.0975 ± 0.013

Sequence | pre-steady-state target cleavage rate
UAGUGAGUCACCUUCUCUGAGAGAUUAUACA | 0.18 ± 0.036
UAGUGACAGUGGAAGUCUGAGAGAUUACCA | < 0.0001
UAGUGACAGACCUUCUCUGAGAGAUUAACU [g2:g21:cont:t1U] | 0.0506 ± 0.009
UAGUGAGUCACCUUGUCUGAGAGAUUUUGA | 0.0161 ± 0.0098
UAGUCUGUCACCUUCUCUGAGAGAUUACACA | 0.153 ± 0.022
UAGUGACACACCUUCUCAGAGAGUUUAACA | 0.0969 ± 0.035
UAGUGACAGUGGAAGAGACAUAGAUUAACA | < 0.0001
UAGUGACAGUGCUUCUCUAAGAGAUUAACA | 0.045 ± 0.0054
UAGUGUCAGACCUUCUCUGAGAGAUUAUGA | 0.00942 ± 0.0043
UAGUGACACGACCUUCUCUGAGAGAUUAACA | 0.11 ± 0.0086
UAGUGACACUCCUUCUCUGAGAGAUUAUCA | 0.0861 ± 0.018
UAGUGACUCACCUUCUCUGAGAGAUUGAACA | 0.173 ± 0.029
UAGUGAGACACCUUCUCUGAGAGAUAAACA | 0.075 ± 0.017
UAGUGACAGUCCUUCUUGAGAGAUUAACA | 0.0069 ± 0.004
UAGUGUGUCAUCCUUCUCUGAGAGAUUAACA | 0.0711 ± 0.01
UAGUGUGUCACCUUCUCAGAGAGAUUUUGA | 0.109 ± 0.037
UAGUGAGUCACCUUCUCUGACAGAUUUACA | 0.00705 ± 0.0055
UAGUGACAGUCCUUCUCUGAGAGAUAAACA | 0.00798 ± 0.0035
UAGUCUGUCUGGUUCUCUGAGAGAUUAACA | 0.0616 ± 0.0055
UAGUGUGUCACCAUCUCUGACAGAUUAACA | 0.0479 ± 0.0079
UAGUGUCUCACCUUCUCUGAGAGAUUAUGA | 0.0163 ± 0.0063
UAGUCUGACACCUUCUCUGUGAGAUUAACA | 0.0387 ± 0.0027
UAGUGAGUCCCCUUCUCUGAGAGAUUAACA | 0.214 ± 0.021
UAGUCUGUCACCUUCUCACUGAGAUUAACA | 0.0186 ± 0.0032

Sequence | pre-steady-state target cleavage rate
UAGUCUGACACCUUCUCUGAGAGAUAAACA | 0.0688 ± 0.013
UAGUGACAGUGCUUCUGUGAGACAUUAACA | 0.0047 ± 0.0025
UAGUGACACACCUUCUCUGACAGAUUAACA | 0.0396 ± 0.0072
UAGUGACUCACCUUCACUGAGAGAUAAACA | 0.0572 ± 0.014
UAGUCUGUCACCUUCUCUGAAGAGAUUAACA | 0.0126 ± 0.004
UAGUGACUCUCCAUCUCUGAGAGAUUAACA | 0.0616 ± 0.0058
UAGUGACUCACCUUCUCUGAGAGAUUACACA | 0.125 ± 0.023
UAGUGACAGACCUUUCUCUGAGAGAUUAACA | 0.061 ± 0.012
UAGUGACACAGCUUCUCUGAGAGUUUAACA | 0.0292 ± 0.01
UAGUGACAGACCUUACUCUGAGAGAUUAACA | 0.0391 ± 0.0052
UAGUGUGUCACCUUCUCUGAGAGACUUAACA | 0.189 ± 0.025
UAGUGACUCACUUUCUCUGAGAGAUUAACA | 0.166 ± 0.0089
UAGUCUGUCUCCUUCUCUGAGAGAUAAACA | 0.07 ± 0.018
UAGUGACAGACCUUCUGUGAGAGAUAAACA | 0.0443 ± 0.016
UAGUGACACACCAUCUCUGAGACAUUAACA | 0.0225 ± 0.0045
UAGUGACAGUGCUUCUCUGAGAGAUAAAGA | < 0.0001
UAGUGACAGACCUUCUGUGACAGAUUAACA | 0.0122 ± 0.0065
UAGUGUGUCACCUUCUCUGAGAGAUUAAUA | 0.236 ± 0.037
UAGUGACAGUGGAAGACUGAGAAGAUUAACA | < 0.0001
UAGUCUGUCUCCUUCUCAGAGAGAUUAACA | 0.115 ± 0.0099
UAGUGACAGUGGAAGUCUGAGAGACUAACA | < 0.0001
UAGUCUGACACCUACUCUGAGAGAUUAACA | 0.12 ± 0.0058
UAGUGUGUCAGCUUCUCUGAGAGAUUAACA | 0.18 ± 0.014
UAGUGACUCACGUUGUCUGAGAGAUUAACA | 0.114 ± 0.0092
